PubChem BioAssay (NCI)
Values joined by “and” are separate entries in the source; they are usually repeats but may differ in a detail not shown here. Identical values can stand only once.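 Five compound concentrations were applied to cells in 96-well plates for 48 hours; endpoints were derived by simple linear interpolation of the resulting dose-response curve. Here, GI50 denotes the concentration required for 50% inhibition of growth. TGI denotes the concentration required for complete inhibition of growth.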 Peptide text beside a SMILES is read from it.

Each compound was assayed on NCI-H322M lung (assay: NCI-60 cell line screen, 48 h).

Compared with O=c1[nH]c(=O)n(C2CC(O)C(CO)O2)cc1C(F)(C(F)(F)F)C(F)(F)F (stereo not given), Cc1cc2nc(C=C(C(F)(F)F)C(F)(F)F)sc2cc1C is lower in TGI: greater than 100 µM for the first, 5.53 µM for the second.

Going from CCCCCCn1c(SC)nc(COC(=O)NC)c1COC(=O)NC to CC(=O)NCCCCN(CCCNC(C)=O)C(=O)CNS(=O)(=O)c1cccc2c(N(C)C)cccc12, the TGI rises from 31.8 µM to greater than 100 µM.

Compared with Cc1cc(N2CCCCC2)nc(NC2CCCC(Nc3ccnc4cc(Cl)ccc34)C2)n1 (stereo not given), CCc1cnn2c(NCc3ccc[n+]([O-])c3)cc(N3CCCC[C@H]3CCO)nc12 is 1.8-fold lower in TGI: 3.13 µM for the first, 1.74 µM for the second.

CC(=O)OCC1OC(N2C(c3ccccc3)=CC(c3ccco3)C(C#N)=C2S)C(OC(C)=O)C(OC(C)=O)C1OC(C)=O (stereo not given) and C=C1[C@H](OCC(C)C)[C@@H](O)[C@@H](OC(=O)c2cccnc2)C(C)(C)/C=C/[C@H](C)[C@H](OC(C)=O)[C@@]2(O)C[C@@](C)(OC(C)=O)[C@H](OC(=O)c3ccccc3)[C@@H]2[C@H]1OC(C)=O cannot be ordered by TGI: greater than 100 µM for the first, greater than 5 µM for the second.

First: COc1cc(/C=C/c2cc(/C=C/c3ccc(O)c(OC)c3)n(C(=O)Nc3ccccc3Cl)n2)ccc1O
Second: COc1cc(N2C(=O)[C@H](c3ccccc3)C2c2ccc(SC)cc2)cc(OC)c1OC (stereo not given in full)
The TGI of the first is lower: 5.17 µM for the first, greater than 100 µM for the second.

O=C1/C(=C/c2ccc(O)cc2)CCc2ccc([N+](=O)[O-])cc21 and CC(=O)Nc1ccc(C(=O)NN2C(=O)CSC2c2ccc(O)cc2)cc1 (stereo not given) cannot be ordered by TGI: greater than 100 µM for the first, greater than 100 µM for the second.

Compared with Clc1cc(Cl)c2cc3cccc[n+]3cc2c1Cl, CN(CC(=O)O)Cc1c(O)c(Cl)cc(Cl)c1Cl is higher in TGI: 48.4 µM for the first, greater than 100 µM for the second.

Going from CCOC(=O)C1(C#N)C(=O)c2cc[n+](CC[n+]3ccc4c(c3)C(=O)C(C#N)(C(=O)OCC)C4=O)cc2C1=O (stereo not given) to CCOC(=O)C1=C(C)NC2=C(C(=O)N(c3ccccc3)C2c2ccccc2)C1c1ccccc1 (stereo not given), the TGI falls from greater than 100 µM to 31.1 µM.

CC(O)CN1c2ccccc2Sc2ccccc21 (stereo not given) and CCOC(=O)Cc1nnc2n(-c3ccccc3)c(=O)c3ccccc3n12 cannot be ordered by TGI: greater than 100 µM for the first, greater than 100 µM for the second.

CC1(C)C2CCC1(C)C(OC(=O)/C=C/C(=O)OC1CC3CCC1(C)C3(C)C)C2 (stereo not given) and CC1C2CC(CC2(C)O)C1(C)C (stereo not given) cannot be ordered by TGI: greater than 100 µM for the first, greater than 100 µM for the second.

O=C(CSCC(=O)N/N=C/c1ccccc1)N/N=C\c1ccccc1 and Cc1[nH]c2ccccc2c1CC/C(=N\Nc1ccccc1)c1ccccc1 cannot be ordered by TGI: greater than 100 µM for the first, greater than 100 µM for the second.

Going from CCC1C(C(=O)Nc2ccccc2C)=C(C)NC(C)=C1c1ccccc1C (stereo not given) to Cc1cnc2oc3ccc(O)cc3c2c1-c1ccccc1, the TGI falls from greater than 100 µM to 72.8 µM.

Going from Cc1[nH]c(=O)[nH]c(=O)c1/C=C/C(=O)NC(CO)CS(=O)CS(C)=O (stereo not given) to CCCCNS(=O)(=O)c1n[nH]c(=O)[nH]c1=O, the TGI rises from 71 µM to greater than 100 µM.

Cn1c(=O)c2nc3c(=O)n(C)c(=O)n(CC(N)=O)c3nc2n(C)c1=O and CCOC(=O)Cn1c2ccc(Br)cc2c2nc3ccccc3nc21 cannot be ordered by TGI: greater than 100 µM for the first, greater than 100 µM for the second.

Compared with COc1ccc(CCN(CC(=O)N(CC(N)=O)C2CCC[C@@H]2OCc2ccccc2)C(=O)CN(C(=O)CN(CCc2ccc(Cl)cc2)C(=O)CN(C(=O)CN(C)Cc2ccccc2F)[C@H](C)C2CCCCC2)[C@H](C)C2CCCCC2)cc1OC (stereo not given in full), CC(C)(Oc1ccc(Cl)cc1)C(=O)N(C(=O)N1CCCCC1)c1ccccc1 is lower in TGI: greater than 50 µM for the first, 30 µM for the second.

First: COc1ccc2c(c1)-c1c(c3cc(OC)ccc3n1CCCN(C)C)CC2
Second: COc1cc2c(c(O)c1OC)C(=O)[C@@H]1CCC(=O)N1C2c1ccccc1 (stereo not given in full)
The TGI of the first is lower: 26.8 µM for the first, greater than 100 µM for the second.

O=C(O)c1ccccc1CC1Cc2cc3c(cc2C1)CCC3 and NC(=O)C1CCCN1C(=O)C(N)Cc1ccccc1 (stereo not drawn) (H-Phe-Pro-NH2; configuration not given here) cannot be ordered by TGI: greater than 100 µM for the first, greater than 100 µM for the second.

First: CC(C)(C)c1ccc2c(c1)C#Cc1cc(C(C)(C)C)ccc1OCCCO2
Second: O=Nc1c(-c2c(O)[nH]c3cc(Br)ccc23)[nH]c2ccccc12
The TGI of the first is higher: greater than 100 µM for the first, 4.09 µM for the second.

First: COC(=O)[C@@]1(C)C(=O)CC[C@@H]1C=O
Second: CCOC(=O)C1(C/C=C/CCl)CCCC1=O (stereo not given)
The TGI of the first is higher: greater than 100 µM for the first, 58.7 µM for the second.

Going from C#Cc1cccc(Nc2ncnc3ccc(OCCCCNCCS(C)(=O)=O)cc23)c1 to CN(C)CC(=O)Nc1ccc2ncnc(Nc3ccc(Oc4cccc(C(F)(F)F)c4)c(Cl)c3)c2c1, the TGI falls from greater than 16.2 µM to 6.65 µM.

O=c1cc(NNCc2ccccc2)[nH]c(=O)[nH]1 and Nc1[nH]c(=S)nc2nc3c(c(-c4ccccc4)c12)CCCC3 cannot be ordered by TGI: greater than 100 µM for the first, greater than 100 µM for the second.

CC(NCc1c(O)ccc2ccc(=O)oc12)C(=O)O (stereo not given) and CC(=O)OCCOCNC(=S)N/N=C/c1cc([N+](=O)[O-])ccc1O cannot be ordered by TGI: greater than 100 µM for the first, greater than 100 µM for the second.

CCN(CC)CC(C)C(=O)/C=C/c1ccc(C)cc1 (stereo not given) and CCC/C(Cl)=N/OC(=O)Nc1cc(C(F)(F)F)ccc1OC are within 1.5-fold of each other in TGI: 26 µM for the first, 31.3 µM for the second.

O=C1C(=C([O-])c2ccccc2)C(=O)c2ccccc21.O=C1C(=C([O-])c2ccccc2)C(=O)c2ccccc21.[Mn+2] and O=c1oc2ccccc2c(O)c1C(c1cnc2ccccc2c1)c1c(O)c2ccccc2oc1=O cannot be ordered by TGI: greater than 100 µM for the first, greater than 100 µM for the second.

Compared with CC(=O)c1cc2c(s1)C(=O)c1sccc1C2=O, COC(=O)c1cc(=O)n(-c2ccc3nn(C)nc3c2)cc1C(=O)OC is higher in TGI: 0.394 µM for the first, greater than 100 µM for the second.

First: O=C(NNC1=NCCCN1)c1ccco1
Second: C=C1C(=O)O[C@@H]2/C=C(\C)CC/C=C(\C)CC[C@@]12O
The TGI of the first is higher: greater than 100 µM for the first, 27.1 µM for the second.

C[Si](C)(C)c1ccc(-c2c3ccc(-c4cc(Br)cc(Br)c4)nc3nc3nc(-c4cc(Br)cc(Br)c4)ccc23)cc1 and Cc1ccc(OCC2OC(n3cnc4nc(Nc5ccc(Cl)c(Cl)c5)nc(Cl)c43)CC2Oc2ccc(C)cc2)cc1 (stereo not given) cannot be ordered by TGI: greater than 100 µM for the first, greater than 100 µM for the second.

Cc1ccc(NC(=O)CC/C(CC(=O)C(C)(C)C)=N\NC(=O)C[n+]2ccccc2)cc1C and Cc1cc(C)nc(NS(=O)(=O)c2ccc(Nc3c4ccccc4nc4c(C(=O)NC(CO)(CO)CO)cccc34)cc2)n1 cannot be ordered by TGI: greater than 100 µM for the first, greater than 100 µM for the second.

Compared with CC1(C)N=C(N)N=C(N)N1c1ccc(Cl)cc1, N#CC1=C(N)NC(=S)NC12Nc1ccccc1S2 (stereo not given) is lower in TGI: greater than 100 µM for the first, 84 µM for the second.

Going from OCC[N+]12CCCN1CCC2 to COc1cc([N+](=O)[O-])c(OC)cc1-c1nc2sc(C)cn2c1/C(N)=N/C(=N)N, the TGI falls from greater than 100 µM to 56.1 µM.

In order of falling GI50:
1. O=C1C(=C([O-])c2ccccc2)C(=O)c2ccccc21.O=C1C(=C([O-])c2ccccc2)C(=O)c2ccccc21.[Mn+2]  48.1 µM
2. N#CC1=C(N)NC(=S)NC12Nc1ccccc1S2 (stereo not given)  26.7 µM
3. COc1cc([N+](=O)[O-])c(OC)cc1-c1nc2sc(C)cn2c1/C(N)=N/C(=N)N  20.4 µM
4. Cc1cnc2oc3ccc(O)cc3c2c1-c1ccccc1  12.9 µM
5. CC1(C)N=C(N)N=C(N)N1c1ccc(Cl)cc1  6.67 µM
6. CN(C)CC(=O)Nc1ccc2ncnc(Nc3ccc(Oc4cccc(C(F)(F)F)c4)c(Cl)c3)c2c1  1.88 µM
7. COc1ccc(CCN(CC(=O)N(CC(N)=O)C2CCC[C@@H]2OCc2ccccc2)C(=O)CN(C(=O)CN(CCc2ccc(Cl)cc2)C(=O)CN(C(=O)CN(C)Cc2ccccc2F)[C@H](C)C2CCCCC2)[C@H](C)C2CCCCC2)cc1OC (stereo not given in full)  1.84 µM
8. COCCOC1=CC(=O)c2c(O)ccc(O)c2C1=O  1.77 µM
9. Cc1cc(N2CCCCC2)nc(NC2CCCC(Nc3ccnc4cc(Cl)ccc34)C2)n1 (stereo not given)  1.53 µM
10. O=Nc1c(-c2c(O)[nH]c3cc(Br)ccc23)[nH]c2ccccc12  1.35 µM
11. C#Cc1cccc(Nc2ncnc3ccc(OCCCCNCCS(C)(=O)=O)cc23)c1  0.529 µM
12. COc1cc(/C=C/c2cc(/C=C/c3ccc(O)c(OC)c3)n(C(=O)Nc3ccccc3Cl)n2)ccc1O  0.466 µM
13. COc1cc(N2C(=O)[C@H](c3ccccc3)C2c2ccc(SC)cc2)cc(OC)c1OC (stereo not given in full)  0.053 µM

CCc1cnn2c(NCc3ccc[n+]([O-])c3)cc(N3CCCC[C@H]3CCO)nc12 was tested, and the GI50 was < 0.0111 µM and 0.00539 µM.

COCCOC1=CC(=O)c2c(O)ccc(O)c2C1=O was tested, and the TGI was 2.76 µM and 3.17 µM.
